From PubChem BioAssay (Tox21)
“And” between values parts separate entries of the source, which are not always exact repeats. Equal values may be shown once. This list was built around the results that the source calls inconclusive (neither active nor inactive); the mix of calls is not that of the screen. Potencies of inconclusive entries are doubtful fits and often do not repeat. The source made the active and inactive calls. Calls come from the whole dose curve; as a rule, active = well fitted activation curve with a large enough effect in the repeat runs; inconclusive = weak or mixed curves; inactive = flat fitted curve, though single readings scatter.

Test: A CellTox Green Cytotoxicity Assay to monitor cytotoxicity in HEK293 cells - 40 hour (AID 1224871); note: nearly all actives have a fitted effect of over 45% in size
Conditions: CellTox Green fluorescence; series mostly up to 76.8 µM
Procedure, shortened: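 Seeding of HEK293 cells together with cytotoxicity dye preceded a 5 h incubation at 37 C/5% CO2. Test compounds in DMSO were then added and fluorescence monitored across 40 h.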
% is set by controls: 0 for no effect and ±100 for the full control effect; potency is the fitted concentration of half-maximal effect; tags give direction and shape of the fitted curve.

SMILES | Potency | cytotoxicity increase
O=C(O)CN(CCN(CC(=O)O)CC(=O)O)CC(=O)O | inconclusive: 1.96 µM [activator, single point] | –
O=C1CCCCCCCCCCOCCCCO1 | active: 49 µM | –
O=C1C(=O)c2ccccc2C(O)=C1C1CCC(c2ccc(Cl)cc2)CC1 (centres undefined) | inconclusive: 30.1 µM [activator, single point] | –
C=Cc1cccc(C)c1 | inconclusive: 3.89 µM [activator, partial curve, poor fit] | –
CC(=O)CCC1=C(C)CCCC1(C)C | inconclusive: 49 µM [activator, partial curve] | –
COC(=O)Nc1nc2ccc(Sc3ccccc3)cc2[nH]1 | inconclusive: 21.9 µM [activator, single point] | –
Nc1ccc(F)cc1 | inconclusive: 22.9 µM [activator, single point] | –
CC(C=O)Cc1ccc(C(C)C)cc1 (centres undefined) | inactive | –
CC(C)CC(C)CC(O)CC(C)C (centres undefined) | inconclusive: 27.5 µM [activator, partial curve, poor fit] | –
Cl[Si](Cl)(c1ccccc1)c1ccccc1 | inconclusive: 22.4 µM [activator, single point] | –
CCOC(=O)C(C)(C)Oc1ccc(Cl)cc1 | inconclusive: 55.8 µM [activator, single point] and inconclusive: 34.7 µM [activator, partial curve] | –
CC(C)OC(=O)c1cc2c(OCC(O)CNC(C)(C)C)cccc2[nH]1 (centres undefined) | inconclusive: 26.8 µM [activator, single point] | –
O=CO | inconclusive: 0.637 µM [activator, single point] | –
O=C(O)CCC(=O)c1ccc(-c2ccccc2)cc1 | inactive | –
C=CCOC(=O)C(=C)C | inconclusive: 61.7 µM [activator, single point] | –
C=Cc1ccc(OC(C)=O)cc1 | inconclusive: 61.6 µM [activator, single point] | –
C[C@]12CC[C@@H]3c4ccc(O)cc4CC[C@H]3[C@@H]1CC[C@@H]2O | inconclusive: 61.5 µM [activator, single point] | –

SMILES | Potency | cytotoxicity increase
CCOc1ccc(OCC)c(Cl)c1 | inconclusive: 49 µM [activator, single point] | –
CN(C)CCCOC1(Cc2ccccc2)CCCCCC1 | inactive | –
CC1=CC[C@@H]2C[C@H]1C2(C)C | – | inactive: 2.52% [at 15.8 µM]
CCCC(O)C(CC)CO (centres undefined) | inconclusive: 2.75 µM [activator, partial curve, poor fit] | –
CCCc1c2oc(C(=O)O)cc(=O)c2cc2c(=O)cc(C(=O)O)n(CC)c12 | inconclusive: 23.9 µM [activator, single point] | –
COc1cc(C(=O)OCCCN2CCCN(CCCOC(=O)c3cc(OC)c(OC)c(OC)c3)CC2)cc(OC)c1OC | inconclusive: 9.52 µM [activator, partial curve] | –
CSSc1ccoc1C | inactive | –
O=[N+]([O-])c1c(Cl)cc(Cl)cc1Cl | inconclusive: 48.5 µM [activator, partial curve, poor fit] | –
O=Cc1ccc([N+](=O)[O-])cc1 | inactive | –
CC(N=C(NC#N)Nc1ccncc1)C(C)(C)C (centres undefined) | inactive | –
CC(=O)N[C@@H](Cc1ccc(O)cc1)C(=O)O | inactive | –
CC(C)C[P+](C)(CC(C)C)CC(C)C | inconclusive: 62 µM [activator, single point] | –
COc1ccc(NC(=O)CC(C)=O)cc1 | inconclusive: 49 µM [activator, single point] | –
CCCCCCCCCCCC[N+](C)(C)CCCS(=O)(=O)[O-] | inconclusive: 55.6 µM [activator, single point] | –
CC(=O)Oc1ccc(C(C)=O)cc1 | inactive | –
NC(=O)N(O)[C@@H]1C=C[C@H](Oc2cccc(Oc3ccc(F)cc3)c2)C1 | active: 43.6 µM | –
Cc1c(N)c(=O)n(-c2ccccc2)n1C | inactive | –
